# Assay results taken from a collection of fitness landscapes (doi:10.1016/j.celrep.2020.107928).
# In all, about 81,000 sequences were measured (“one-hybrid fitness for binding parS DNA”: median about -0.17, highest 2% from about 0.51 on). The list shows a part of the results.
# B1: Caulobacter ParB omega fusion; a variant is named by its letters at X, in order, B8GW30 (parent)
# chain: MESVVVGEPGMSEGRRGLGRGLSALLGEVDAAPAQAPGEQLGGSREAPIEILQRNPDQPRRTFREEDLEDLSNSIREKGVLQPILVRPSPDTAGEYQIVAGERAWRAAQRAGLKTVPIMVRELDDLAVLEIGIIENVQRADLNVLEEALSYKVLMEKFERTQENIAQTIGKSXSHVANXMRLLXLPDEVQSYLVSGELTAXHARAIAAAADPVALAKQIIEGGLSVRETEALARKAPNLSAGKSKGGRPPRVKDTDTQALESDLSSVLGLDVSIDHRGSTGTLTITYATLEQLDDLCNRLTRGI
# Variants of: B1
# Test: one-hybrid fitness for binding parS DNA (scaled: cognate 1, non-cognate 0); higher = stronger binding
# Details: with parS DNA site
# Procedure, shortened: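 Caulobacter ParB libraries with four specificity codons randomised were screened by bacterial one-hybrid selection in the E. coli USO strain, using a HIS3 reporter whose site lies 19 bp from the promoter. Selection ran for 48 hours at 37°C on M9 lacking histidine, with 0.1 mM IPTG and 5 mM 3-AT. Plasmids were Illumina-sequenced before and after selection, three replicate libraries were pooled, and variants with under 10 reads were dropped. Fitness is the log change in each variant's read ratio to wild type, rescaled against the cognate and non-cognate sites.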
row,Variant,one-hybrid fitness for binding parS DNA
1,RKPF,≤ 0.2
2,WNTS,≤ 0.2
3,LVYT,≤ 0.2
4,QWDN,≤ 0.2
5,ARIF,≤ 0.2
6,TDSG,≤ 0.2
7,DNKC,≤ 0.2
8,RQWG,0.877
9,DLHD,≤ 0.2
10,PHRF,≤ 0.2
11,QHSM,≤ 0.2
12,ARFF,≤ 0.2
13,DWNL,≤ 0.2
14,VTFC,≤ 0.2
15,VRHR,≤ 0.2
16,MFPS,≤ 0.2
17,VISF,≤ 0.2
18,WRPY,≤ 0.2
19,INAC,≤ 0.2
20,ILAH,≤ 0.2
21,CAHR,≤ 0.2
22,PGWW,≤ 0.2
23,FKLE,≤ 0.2
24,EIIT,≤ 0.2

row,Variant,one-hybrid fitness for binding parS DNA
1,VRQL,≤ 0.2
2,FVLH,≤ 0.2
3,WRKI,≤ 0.2
4,GPRM,≤ 0.2
5,IVVY,≤ 0.2
6,FQCC,≤ 0.2
7,PDAR,≤ 0.2
8,DFLF,≤ 0.2
9,YWAY,≤ 0.2
10,RITK,≤ 0.2
11,AMQR,≤ 0.2
12,LSGL,≤ 0.2
13,CPKT,≤ 0.2
14,EGLH,≤ 0.2
15,EVVE,0.204
16,RWIC,0.521
17,NVES,≤ 0.2
18,QHGS,≤ 0.2
19,DNRG,≤ 0.2
20,WPSS,≤ 0.2
21,SCRV,≤ 0.2
22,AQRL,≤ 0.2
23,LGAN,≤ 0.2
24,QFDF,≤ 0.2

row,Variant,one-hybrid fitness for binding parS DNA
1,ACVC,≤ 0.2
2,QKNL,≤ 0.2
3,PTYI,≤ 0.2
4,PNYG,≤ 0.2
5,RKGF,≤ 0.2
6,TGQL,≤ 0.2
7,SNRI,≤ 0.2
8,PYPV,≤ 0.2
9,VARS,≤ 0.2
10,YVRC,≤ 0.2
11,YWAR,≤ 0.2
12,HNRC,≤ 0.2
13,AILS,≤ 0.2
14,RVNT,0.899
15,EGRG,≤ 0.2
16,APTC,≤ 0.2
17,GIQR,≤ 0.2
18,DRMC,≤ 0.2
19,EPPI,≤ 0.2
20,DFTA,≤ 0.2
21,YDHG,≤ 0.2
22,LLVV,≤ 0.2
23,RIKW,0.326
24,RQEE,≤ 0.2

row,Variant,one-hybrid fitness for binding parS DNA
1,AGRS,≤ 0.2
2,AMKT,≤ 0.2
3,CHTS,≤ 0.2
4,INSG,≤ 0.2
5,RKFH,0.211
6,SVRA,≤ 0.2
7,VRRN,≤ 0.2
8,SAGM,≤ 0.2
9,VLID,≤ 0.2
10,AITS,≤ 0.2
11,RRDF,≤ 0.2
12,TELL,≤ 0.2
13,VQAR,≤ 0.2
14,RGSC,0.672
15,SNDF,≤ 0.2
16,ESPR,≤ 0.2
17,QYTW,≤ 0.2
18,IRYS,≤ 0.2
19,YNVW,≤ 0.2
20,DTMS,≤ 0.2
21,SFMY,≤ 0.2
22,VNQD,≤ 0.2
23,YHNG,≤ 0.2
24,SLNI,≤ 0.2

row,Variant,one-hybrid fitness for binding parS DNA
1,QAHY,≤ 0.2
2,THDR,≤ 0.2
3,VIEG,≤ 0.2
4,GHHR,≤ 0.2
5,DKIG,≤ 0.2
6,APYS,≤ 0.2
7,KRNI,≤ 0.2
8,CCPT,≤ 0.2
9,RWGR,≤ 0.2
10,QSGV,≤ 0.2
11,FTVR,≤ 0.2
12,TRCL,≤ 0.2
13,SYVM,≤ 0.2
14,HRWT,≤ 0.2
15,GNTM,≤ 0.2
16,RVAI,≤ 0.2
17,WFQS,≤ 0.2
18,RYIA,0.496
19,SQSF,≤ 0.2
20,DSRH,≤ 0.2
21,REFR,≤ 0.2
22,RAPV,≤ 0.2
23,HSSN,≤ 0.2
24,TQVY,≤ 0.2

row,Variant,one-hybrid fitness for binding parS DNA
1,ISSN,≤ 0.2
2,QLYS,≤ 0.2
3,AVPG,≤ 0.2
4,PCFK,≤ 0.2
5,RAEH,≤ 0.2
6,KSTF,≤ 0.2
7,HPMR,≤ 0.2
8,ANWN,≤ 0.2
9,LLSH,≤ 0.2
10,NNMV,≤ 0.2
11,KWHR,≤ 0.2
12,VAIS,≤ 0.2
13,GILV,≤ 0.2
14,QMES,≤ 0.2
15,QAER,≤ 0.2
16,IDHM,≤ 0.2
17,VAWQ,≤ 0.2
18,WVCG,≤ 0.2
19,SYCS,≤ 0.2
20,IVPY,≤ 0.2
21,FVVC,≤ 0.2
22,QCRE,≤ 0.2
23,VWPS,≤ 0.2
24,RDHE,≤ 0.2

row,Variant,one-hybrid fitness for binding parS DNA
1,CSAG,≤ 0.2
2,AKYC,≤ 0.2
3,GHSY,≤ 0.2
4,VKMS,≤ 0.2
5,YFTV,≤ 0.2
6,STSH,≤ 0.2
7,QTLL,≤ 0.2
8,FMEG,0.235
9,RRYW,≤ 0.2
10,MHST,≤ 0.2
11,RFMR,≤ 0.2
12,TTYC,≤ 0.2
13,YATL,≤ 0.2
14,YKLG,≤ 0.2
15,RTLM,0.356
16,VNSS,≤ 0.2
17,CYMS,≤ 0.2
18,FRSM,≤ 0.2
19,PSGS,≤ 0.2
20,VEIY,≤ 0.2
21,QPKG,≤ 0.2
22,PASC,≤ 0.2
23,VMKI,≤ 0.2
24,VHAG,≤ 0.2

row,Variant,one-hybrid fitness for binding parS DNA
1,PDAD,≤ 0.2
2,HRWS,0.242
3,HWTY,≤ 0.2
4,FDTV,≤ 0.2
5,MPGS,≤ 0.2
6,KCRG,≤ 0.2
7,VYSC,≤ 0.2
8,HNAD,≤ 0.2
9,QRKQ,≤ 0.2
10,GTLP,≤ 0.2
11,NLSV,≤ 0.2
12,LVIR,≤ 0.2
13,TRTW,≤ 0.2
14,QLDN,≤ 0.2
15,FNGG,≤ 0.2
16,ACCC,≤ 0.2
17,NRRY,≤ 0.2
18,AVFG,≤ 0.2
19,RYRL,≤ 0.2
20,LPQS,≤ 0.2
21,KVCS,≤ 0.2
22,DRIR,≤ 0.2
23,LKSR,≤ 0.2
24,DYSS,≤ 0.2

row,Variant,one-hybrid fitness for binding parS DNA
1,ETMG,≤ 0.2
2,SINC,≤ 0.2
3,LAGN,≤ 0.2
4,GRVC,≤ 0.2
5,SLRR,≤ 0.2
6,NRQR,≤ 0.2
7,MLLY,≤ 0.2
8,GYRC,≤ 0.2
9,GARL,≤ 0.2
10,AKAY,≤ 0.2
11,SQYV,≤ 0.2
12,VTSR,≤ 0.2
13,RHLR,≤ 0.2
14,LRSW,≤ 0.2
15,HRVS,≤ 0.2
16,MTND,≤ 0.2
17,KVPR,≤ 0.2
18,FSQR,≤ 0.2
19,EGRT,≤ 0.2
20,LNQK,≤ 0.2
21,HRAA,≤ 0.2
22,WGTW,≤ 0.2
23,SYKA,≤ 0.2
24,DHWR,≤ 0.2

row,Variant,one-hybrid fitness for binding parS DNA
1,SNTG,≤ 0.2
2,GQYP,≤ 0.2
3,RWTW,≤ 0.2
4,LDGG,≤ 0.2
5,AGAR,≤ 0.2
6,STGC,≤ 0.2
7,NAYI,≤ 0.2
8,WNNG,≤ 0.2
9,KEKR,≤ 0.2
10,ILRR,≤ 0.2
11,LKAD,≤ 0.2
12,VAWT,≤ 0.2
13,PLNQ,≤ 0.2
14,SALG,≤ 0.2
15,TANF,≤ 0.2
16,KKKM,≤ 0.2
17,TIGF,≤ 0.2
18,MRAS,≤ 0.2
19,FGCT,≤ 0.2
20,TPDS,≤ 0.2
21,SVLI,≤ 0.2
22,RKAS,0.832
23,ALPF,≤ 0.2
24,NYAG,≤ 0.2

row,Variant,one-hybrid fitness for binding parS DNA
1,HMFG,≤ 0.2
2,FVLQ,≤ 0.2
3,QVLM,≤ 0.2
4,STAK,≤ 0.2
5,GIAS,≤ 0.2
6,DWRT,≤ 0.2
7,NFIG,≤ 0.2
8,ETVY,≤ 0.2
9,RLAI,≤ 0.2
10,DGLV,≤ 0.2
11,GLYM,≤ 0.2
12,WSLF,≤ 0.2
13,CLHT,≤ 0.2
14,RRFY,0.274
15,KRPV,≤ 0.2
16,CFNT,≤ 0.2
17,CQPG,≤ 0.2
18,RLEP,≤ 0.2
19,SEHV,≤ 0.2
20,VWTA,≤ 0.2
21,RWFY,≤ 0.2
22,AAVI,≤ 0.2
23,YDVS,≤ 0.2
24,DKPK,≤ 0.2

row,Variant,one-hybrid fitness for binding parS DNA
1,IQYC,≤ 0.2
2,WKST,≤ 0.2
3,KSYK,≤ 0.2
4,YVMG,≤ 0.2
5,NESV,≤ 0.2
6,VWSA,≤ 0.2
7,TIIQ,≤ 0.2
8,SQIG,≤ 0.2
9,NFEC,≤ 0.2
10,GRIY,≤ 0.2
11,PMLF,≤ 0.2
12,NRPR,≤ 0.2
13,AKRP,≤ 0.2
14,TSDM,≤ 0.2
15,GTNS,≤ 0.2
16,RTQQ,≤ 0.2
17,GFTS,≤ 0.2
18,SQSG,≤ 0.2
19,ALNW,≤ 0.2
20,WTGG,≤ 0.2
21,RYCS,0.958
22,TEFG,≤ 0.2
23,APRF,≤ 0.2
24,HMTW,≤ 0.2

row,Variant,one-hybrid fitness for binding parS DNA
1,QSYE,≤ 0.2
2,PTRE,≤ 0.2
3,DRST,≤ 0.2
4,YRKA,≤ 0.2
5,RPLP,≤ 0.2
6,TPTV,≤ 0.2
7,VTWC,≤ 0.2
8,WACN,≤ 0.2
9,HVAR,≤ 0.2
10,LDFG,≤ 0.2
11,SRGS,≤ 0.2
12,STET,≤ 0.2
13,ARFE,≤ 0.2
14,YLCR,≤ 0.2
15,HPKG,≤ 0.2
16,LYMV,≤ 0.2
17,HVLG,≤ 0.2
18,PMTR,≤ 0.2
